Data published in paper PMC9911399, “Two distinct binding modes provide the RNA-binding protein RbFox with extraordinary sequence specificity”.
Where a chain is given by its changes, count along the chain named. This is one part of the list.

T1: RBFOX1 RRM (Homo sapiens, UniProt Q9NWB1 109-208)
T1 sequence: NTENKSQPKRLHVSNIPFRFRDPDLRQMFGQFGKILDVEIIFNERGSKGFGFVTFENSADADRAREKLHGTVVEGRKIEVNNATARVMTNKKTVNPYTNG

B1: AUGCUAC (DNA:RNA)
RNA: GGGAGACCGGAAUUCAGAUUGUCCAUGCUACUUAAAUCCCGUCGUAGCCACCA
DNA 1: CAATCTGAATTCCGGTCTCCC
DNA 2: TGGTGGCTACGACGGGATT
B2: AGGAUGU (DNA:RNA)
RNA: B1 RNA with U26G, C28A, A30G, C31U
DNA 1: CAATCTGAATTCCGGTCTCCC
DNA 2: TGGTGGCTACGACGGGATT
B3: AGUGCAG (DNA:RNA)
RNA: B1 RNA with U26G, G27U, C28G, U29C, C31G
DNA 1: CAATCTGAATTCCGGTCTCCC
DNA 2: TGGTGGCTACGACGGGATT
B4: GGUCAGC (DNA:RNA)
RNA: B1 RNA with A25G, U26G, G27U, U29A, A30G
DNA 1: CAATCTGAATTCCGGTCTCCC
DNA 2: TGGTGGCTACGACGGGATT
B5: GCGGCGA (DNA:RNA)
RNA: B1 RNA with A25G, U26C, C28G, U29C, A30G, C31A
DNA 1: CAATCTGAATTCCGGTCTCCC
DNA 2: TGGTGGCTACGACGGGATT
B6: GGUGUCU (DNA:RNA)
RNA: B1 RNA with A25G, U26G, G27U, C28G, A30C, C31U
DNA 1: CAATCTGAATTCCGGTCTCCC
DNA 2: TGGTGGCTACGACGGGATT
B7: GCUACUC (DNA:RNA)
RNA: B1 RNA with A25G, U26C, G27U, C28A, U29C, A30U
DNA 1: CAATCTGAATTCCGGTCTCCC
DNA 2: TGGTGGCTACGACGGGATT
B8: AAUGUGC (DNA:RNA)
RNA: B1 RNA with U26A, G27U, C28G, A30G
DNA 1: CAATCTGAATTCCGGTCTCCC
DNA 2: TGGTGGCTACGACGGGATT
B9: AGAGCCG (DNA:RNA)
RNA: B1 RNA with U26G, G27A, C28G, U29C, A30C, C31G
DNA 1: CAATCTGAATTCCGGTCTCCC
DNA 2: TGGTGGCTACGACGGGATT
B10: UAUUUAG (DNA:RNA)
RNA: B1 RNA with A25U, U26A, G27U, C28U, C31G
DNA 1: CAATCTGAATTCCGGTCTCCC
DNA 2: TGGTGGCTACGACGGGATT
B11: AUAAGGU (DNA:RNA)
RNA: B1 RNA with G27A, C28A, U29G, A30G, C31U
DNA 1: CAATCTGAATTCCGGTCTCCC
DNA 2: TGGTGGCTACGACGGGATT
B12: GGCCGCU (DNA:RNA)
RNA: B1 RNA with A25G, U26G, G27C, U29G, A30C, C31U
DNA 1: CAATCTGAATTCCGGTCTCCC
DNA 2: TGGTGGCTACGACGGGATT
B13: GCGGGGG (DNA:RNA)
RNA: B1 RNA with A25G, U26C, C28G, U29G, A30G, C31G
DNA 1: CAATCTGAATTCCGGTCTCCC
DNA 2: TGGTGGCTACGACGGGATT
B14: ACAGGUG (DNA:RNA)
RNA: B1 RNA with U26C, G27A, C28G, U29G, A30U, C31G
DNA 1: CAATCTGAATTCCGGTCTCCC
DNA 2: TGGTGGCTACGACGGGATT
B15: UAGGCCA (DNA:RNA)
RNA: B1 RNA with A25U, U26A, C28G, U29C, A30C, C31A
DNA 1: CAATCTGAATTCCGGTCTCCC
DNA 2: TGGTGGCTACGACGGGATT
B16: CACGGCU (DNA:RNA)
RNA: GGGAGACCGGAAUUCAGAUUGUCCCACGGCUUUAAAUCCCGUCGUAGCCACCA
DNA 1: CAATCTGAATTCCGGTCTCCC
DNA 2: TGGTGGCTACGACGGGATT
B17: CUAGUGU (DNA:RNA)
RNA: B16 RNA with A26U, C27A, G29U, C30G
DNA 1: CAATCTGAATTCCGGTCTCCC
DNA 2: TGGTGGCTACGACGGGATT
B18: CGCUUAG (DNA:RNA)
RNA: B1 RNA with A25C, U26G, G27C, C28U, C31G
DNA 1: CAATCTGAATTCCGGTCTCCC
DNA 2: TGGTGGCTACGACGGGATT
B19: AGGGUCG (DNA:RNA)
RNA: B1 RNA with U26G, C28G, A30C, C31G
DNA 1: CAATCTGAATTCCGGTCTCCC
DNA 2: TGGTGGCTACGACGGGATT
B20: UUGAUCG (DNA:RNA)
RNA: B1 RNA with A25U, C28A, A30C, C31G
DNA 1: CAATCTGAATTCCGGTCTCCC
DNA 2: TGGTGGCTACGACGGGATT
B21: CAGCGCA (DNA:RNA)
RNA: B16 RNA with C27G, G28C, U31A
DNA 1: CAATCTGAATTCCGGTCTCCC
DNA 2: TGGTGGCTACGACGGGATT
B22: AAGAAGU (DNA:RNA)
RNA: B1 RNA with U26A, C28A, U29A, A30G, C31U
DNA 1: CAATCTGAATTCCGGTCTCCC
DNA 2: TGGTGGCTACGACGGGATT
B23: AAUAUGA (DNA:RNA)
RNA: B1 RNA with U26A, G27U, C28A, A30G, C31A
DNA 1: CAATCTGAATTCCGGTCTCCC
DNA 2: TGGTGGCTACGACGGGATT
B24: CUCUCUA (DNA:RNA)
RNA: B16 RNA with A26U, G28U, G29C, C30U, U31A
DNA 1: CAATCTGAATTCCGGTCTCCC
DNA 2: TGGTGGCTACGACGGGATT
B25: GGCACUU (DNA:RNA)
RNA: B16 RNA with C25G, A26G, G28A, G29C, C30U
DNA 1: CAATCTGAATTCCGGTCTCCC
DNA 2: TGGTGGCTACGACGGGATT
B26: GAGCAUA (DNA:RNA)
RNA: B1 RNA with A25G, U26A, U29A, A30U, C31A
DNA 1: CAATCTGAATTCCGGTCTCCC
DNA 2: TGGTGGCTACGACGGGATT
B27: UAGGAUC (DNA:RNA)
RNA: B1 RNA with A25U, U26A, C28G, U29A, A30U
DNA 1: CAATCTGAATTCCGGTCTCCC
DNA 2: TGGTGGCTACGACGGGATT
B28: AGUCCAG (DNA:RNA)
RNA: B1 RNA with U26G, G27U, U29C, C31G
DNA 1: CAATCTGAATTCCGGTCTCCC
DNA 2: TGGTGGCTACGACGGGATT
B29: GAUAAGG (DNA:RNA)
RNA: B16 RNA with C25G, C27U, G28A, G29A, C30G, U31G
DNA 1: CAATCTGAATTCCGGTCTCCC
DNA 2: TGGTGGCTACGACGGGATT
B30: AGGACAC (DNA:RNA)
RNA: B1 RNA with U26G, C28A, U29C
DNA 1: CAATCTGAATTCCGGTCTCCC
DNA 2: TGGTGGCTACGACGGGATT
B31: AUCGUUU (DNA:RNA)
RNA: B1 RNA with G27C, C28G, A30U, C31U
DNA 1: CAATCTGAATTCCGGTCTCCC
DNA 2: TGGTGGCTACGACGGGATT

Target: T1, RBFOX1 RRM
Assay: EMSA; HiTS-Eq, 1 nM pool, 10 min; buffer printed only for the single-RNA assays: 10 mM Tris pH 7.5, 150 mM NaCl, 3.4 mM EDTA, 0.001% NP-40, 30 C
Details: tags: His6 N-terminal (pET28a); label: 5' 32P
Summary of the method: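 Purified RbFox RRM (wild type or mutant) was equilibrated for 10 min in 50 µL with 1 nM of a 5′-radiolabelled pool of RNA with 7 randomized nucleotides, its flanks annealed to DNA oligonucleotides, across increasing protein concentrations. Free RNA was separated by 8% native PAGE, excised, reverse-transcribed, PCR-barcoded and sequenced on an Illumina HiSeq 2500. Relative association constants came from read-count changes of each variant against the control reaction, normalised to the cognate motif.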

| Binder | binding signal |
| --- | --- |
| B1 | 0.0089 KA relative to UGCAUGU |
| B2 | 0.0179 KA relative to UGCAUGU |
| B3 | 0.0167 KA relative to UGCAUGU |
| B4 | 0.0143 KA relative to UGCAUGU |
| B5 | 0.0227 KA relative to UGCAUGU |
| B6 | 0.0102 KA relative to UGCAUGU |
| B7 | 0.0175 KA relative to UGCAUGU |
| B8 | 0.0173 KA relative to UGCAUGU |
| B9 | 0.00628 KA relative to UGCAUGU |
| B10 | 0.0153 KA relative to UGCAUGU |
| B11 | 0.00979 KA relative to UGCAUGU |
| B12 | 0.0123 KA relative to UGCAUGU |
| B13 | 0.0269 KA relative to UGCAUGU |
| B14 | 0.00968 KA relative to UGCAUGU |
| B15 | 0.00813 KA relative to UGCAUGU |
| B16 | 0.00764 KA relative to UGCAUGU |

| Binder | binding signal |
| --- | --- |
| B17 | 0.0159 KA relative to UGCAUGU |
| B18 | 0.00951 KA relative to UGCAUGU |
| B19 | 0.0203 KA relative to UGCAUGU |
| B20 | 0.0284 KA relative to UGCAUGU |
| B21 | 0.00751 KA relative to UGCAUGU |
| B22 | 0.00241 KA relative to UGCAUGU |
| B23 | 0.00647 KA relative to UGCAUGU |
| B24 | 0.000969 KA relative to UGCAUGU |
| B25 | 0.00825 KA relative to UGCAUGU |
| B26 | 0.012 KA relative to UGCAUGU |
| B27 | 0.00767 KA relative to UGCAUGU |
| B28 | 0.00711 KA relative to UGCAUGU |
| B29 | 0.0074 KA relative to UGCAUGU |
| B30 | 0.0157 KA relative to UGCAUGU |
| B31 | 0.00427 KA relative to UGCAUGU |
